# Measurements as given in PubChem BioAssay (NCATS).
# Inconclusive means that the source gave no clear call. Such entries were picked first, then a sample of the others. Potencies of inconclusive entries are doubtful fits and often do not repeat. Calls of active or inactive are those of the source. Calls follow the shape of the dose curve; as a rule, active = well fitted activation curve with a large enough effect; inconclusive = small, poorly fitted or top-dose-only effect; inactive = no such curve, though single readings can be large or run the other way.
# Target: Cellular tumor antigen p53 (Homo sapiens) (UniProt P04637)
# UniProt P04637, sequence (P04637 whole entry, looked up): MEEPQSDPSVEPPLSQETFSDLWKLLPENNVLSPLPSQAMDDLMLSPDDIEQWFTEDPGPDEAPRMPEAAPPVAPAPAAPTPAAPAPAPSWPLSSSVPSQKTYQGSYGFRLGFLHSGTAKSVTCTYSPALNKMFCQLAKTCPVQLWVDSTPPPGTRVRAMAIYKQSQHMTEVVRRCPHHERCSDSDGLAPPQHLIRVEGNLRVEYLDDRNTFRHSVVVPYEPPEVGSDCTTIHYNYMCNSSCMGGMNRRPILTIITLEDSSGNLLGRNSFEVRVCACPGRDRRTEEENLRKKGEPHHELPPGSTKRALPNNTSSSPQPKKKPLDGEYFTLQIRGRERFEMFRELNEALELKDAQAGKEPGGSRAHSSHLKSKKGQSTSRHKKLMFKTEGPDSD
# Assay: Primary qHTS for small molecule compounds that upregulate eGFP-tagged delta133p53alpha (in N-terminal) cells. (AID 2060322); also: nearly all actives have a fitted effect of over 75% in size;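 as to activation: series mostly up to about 56 µM; 0% = DMSO vehicle and 100% = reference activator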
# Conditions: NCI-H358 eGFP-delta133p53alpha fluorescence, 24 h; activation: active compounds read high
# Outline: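 NCI-H358 cells pre-induced 24 h with 10 ng/ml doxycycline to express N-terminal eGFP-delta133p53alpha, then dosed 24 h at 37C without doxycycline; fixed, Hoechst-stained, GFP intensity by laser scanning cytometry, normalized to DMSO (0%) and 57.5 uM 5-azacytidine (100%).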
# Potency is read from the fitted curve at half-maximal effect; tags tell the direction and shape of the fitted curve.
SMILES,Potency,activation
CC(=O)Oc1ccc2c(c1)CC[C@@H]1[C@@H]2CC[C@]2(C)[C@@H](O)CC[C@@H]12,"inconclusive: 34.7 µM [activator, single point]",–
CC12CCC(C(OC3OC(COC4OCC(O)(CO)C4O)C(O)C(O)C3O)C1)C(C)(C)O2 (stereo not given),–,inactive: -13.4%
CCC1C(=O)N(C)c2cnc(Nc3ccc(C(=O)NC4CCN(C)CC4)cc3OC)nc2N1C1CCCC1 (stereo not given),–,inconclusive: 33% [activator]
NC(=O)c1nnn(Cc2cc(Cl)c(C(=O)c3ccc(Cl)cc3)c(Cl)c2)c1N,–,inactive: -8.58%
COc1cc(N)c(Cl)cc1C(=O)NC1CCN(Cc2ccccc2)CC1,–,inactive: 17.6%
C/C=C(/C)C(=O)O[C@H]1C=C(C)C[C@H](OC(=O)c2ccc(O)cc2)C2[C@](O)(C(C)C)CC[C@@]21C (stereo not given in full),–,inactive: -5.34%
CNC(=O)[C@H]1O[C@@H](n2cnc3c(NCc4cccc(I)c4)ncnc32)[C@H](O)[C@@H]1O,–,inactive: -36.7%
NC(=O)N1CCC(CC(=O)N2CCC(C3c4ncc(Br)cc4CCc4cc(Cl)cc(Br)c43)CC2)CC1 (stereo not given),"inconclusive: 21.3 µM [activator, single point]",–
COc1ccccc1-c1ccc(-c2cn(C(=O)N3CCCCC3Cc3ccccc3)nn2)cc1 (stereo not given),–,inactive: -5%
COc1cc(C)c(C(=O)OC2C(C)OC(OC3CCC(C)C4C3C=C(C)C3/C(C)=C\CC/C(C)=C/C5(C)C=C(C(=O)O)C(C)CC56OC(=O)/C(=C(\O)C34C)C6=O)C(O)C2O)c(OC)c1 (stereo not given),–,inactive: 10.7%
